Measurements from PMC6602471.
The list shows a part of the results. At the low end of the ranking the order means little.

molecular target: T1, ETS1 (UniProt P14921); assay: custom PBM; conditions: custom protein-binding microarray; buffer, salt, pH and temperature not stated; high values mean tight binding; double strand, one strand shown
T1 sequence: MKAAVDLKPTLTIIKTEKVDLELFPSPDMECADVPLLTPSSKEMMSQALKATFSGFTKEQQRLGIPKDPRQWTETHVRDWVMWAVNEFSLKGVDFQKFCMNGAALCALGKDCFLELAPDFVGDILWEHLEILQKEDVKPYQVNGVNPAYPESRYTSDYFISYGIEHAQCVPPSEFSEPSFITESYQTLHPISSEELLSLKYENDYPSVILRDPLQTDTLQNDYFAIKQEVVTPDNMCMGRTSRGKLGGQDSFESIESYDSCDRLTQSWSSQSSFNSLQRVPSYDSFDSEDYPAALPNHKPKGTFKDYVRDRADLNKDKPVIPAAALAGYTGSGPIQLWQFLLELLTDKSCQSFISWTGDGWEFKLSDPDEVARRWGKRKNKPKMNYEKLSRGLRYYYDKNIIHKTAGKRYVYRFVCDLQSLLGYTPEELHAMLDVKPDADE

| Sequence | binding signal (log fluorescence intensity) |
| --- | --- |
| TGTCGGGTAAGGGAATGTAGATCACGTGAATGCAAAGTCTTGATTCGCTTGACGCTGCTG | 8.38 |
| TCCGGCTACCAGCTCCACCCACTTCAGGCCTTTTAGGTCTTGATTCGCTTGACGCTGCTG | 8.35 |
| GGAAAAAGTCCCAGGGTAACACCGGAAGTGGGCTTAGTCTTGATTCGCTTGACGCTGCTG | 12.1 |
| GTGTATAGGATCCCATCCAGCACACGTGTTAAAATGGTCTTGATTCGCTTGACGCTGCTG | 8.27 |
| TAAAGGGAAGACGGTTGTGGTAGTTCCGGGTATTCAGTCTTGATTCGCTTGACGCTGCTG | 8.52 |
| CAGCATAGGACTTCTTCCCTGAAGCAATCGATAACCGTCTTGATTCGCTTGACGCTGCTG | 8.4 |
| CGGAAGTGTCGTCAACGTCGGATATCCGGTTCTTCTGTCTTGATTCGCTTGACGCTGCTG | 11.8 |
| TGTCGGGTAAGGGAATGGAGATCACGTGAATGAAAAGTCTTGATTCGCTTGACGCTGCTG | 8.16 |
| GATTAATTTCTGCCCTTATTCGCACGTGCCATAAGAGTCTTGATTCGCTTGACGCTGCTG | 8.21 |
| GCTCCTGCGGTGCATACCCCACCGGATGTGACCCCGGTCTTGATTCGCTTGACGCTGCTG | 10.2 |
| GCTGCTGCGGTGCATACCCCACCGGATGTGACCCCGGTCTTGATTCGCTTGACGCTGCTG | 10.2 |
| CACAATTTTTACAGTAATGTAGCACGCGGAACTCCTGTCTTGATTCGCTTGACGCTGCTG | 8.35 |
| GTGTATAGCATCCCATCCAACACACGTGTTAAAATGGTCTTGATTCGCTTGACGCTGCTG | 8.58 |
| ACTGCTGCGGTGCATACCCCACCGGATGTGACCCCGGTCTTGATTCGCTTGACGCTGCTG | 10.4 |
| TAAAGGGAAGACGGTTGTGGTAGTTCCGGTTATTAAGTCTTGATTCGCTTGACGCTGCTG | 9.95 |
| GGAAAAAGGCCCAGGGTAACACCGGAAGTGGGTTTAGTCTTGATTCGCTTGACGCTGCTG | 12 |
| CAGAATTTTTACAGTAATGTAGCACGCGTAACTCCTGTCTTGATTCGCTTGACGCTGCTG | 8.28 |
| GTGTACAGGATCCCATCCAACACACGTGTTAAAATGGTCTTGATTCGCTTGACGCTGCTG | 8.4 |
| TAAAGGGAAGACGGTTGTGGTAGTACCGGGTATTAAGTCTTGATTCGCTTGACGCTGCTG | 8.12 |
| GATTAATTTCTGCCCTTATTCGCACTTGCCATAACAGTCTTGATTCGCTTGACGCTGCTG | 8.03 |
| GGAAAAAGGCCCATGGTAACACCGGAAGTGGGCTTAGTCTTGATTCGCTTGACGCTGCTG | 11.9 |

| Sequence | binding signal (log fluorescence intensity) |
| --- | --- |
| GGAAAAAGGCCCAGGGTAACACCGGAAGTCGGCTTAGTCTTGATTCGCTTGACGCTGCTG | 11.5 |
| CAGCATAGGACTTCTTGCCTGAAGCAATTGATAACCGTCTTGATTCGCTTGACGCTGCTG | 8.16 |
| TGTCGGGTAAGGGAATGTAGGTCACGTGAATGAAAAGTCTTGATTCGCTTGACGCTGCTG | 8.19 |
| TGTCGGGTAAGGGAATGTAGATCACGTGAATGAAAAGTCTTGATTCGCTTGACGCTGCTG | 8.22 |
| GCTGCTGCGGTGCATACCGCACCGGATGTGACCCCGGTCTTGATTCGCTTGACGCTGCTG | 10.3 |
| GCTGCTGCGGTGCTTACCCCACCGGATGTGACCCCGGTCTTGATTCGCTTGACGCTGCTG | 10.3 |
| GGAAAAAGGCTCAGGGTAACACCGGAAGTGGGCTTAGTCTTGATTCGCTTGACGCTGCTG | 11.8 |
| CTGAAGTGTCGTAAACGTCGGATATCCGGTTCTTCTGTCTTGATTCGCTTGACGCTGCTG | 11.8 |
| GGATAAAGGCCCAGGGTAACACCGGAAGTGGGCTTAGTCTTGATTCGCTTGACGCTGCTG | 11.9 |
| TGTCCGGTAAGGGAATGTAGATCACGTGAATGAAAAGTCTTGATTCGCTTGACGCTGCTG | 8.18 |
| GCTGCTGCGGTGCATACCCCACCGGGTGTGACCCCGGTCTTGATTCGCTTGACGCTGCTG | 8.21 |
| CGGAAGTGTCGTAAACGTCGGATATCCGATTCTTCTGTCTTGATTCGCTTGACGCTGCTG | 8.64 |
| GATTAATTTATGCCCTTATTCGCACGTGCCATAACAGTCTTGATTCGCTTGACGCTGCTG | 8.31 |
| TCCGGCTACCAACTCCACCCACTTCAGGCCTTGTAGGTCTTGATTCGCTTGACGCTGCTG | 8.36 |
| GGAAAAAGGCCCAGGGTAACACCGGAAGTGGGATTAGTCTTGATTCGCTTGACGCTGCTG | 12.1 |
| GTGTATAGGATCCCATCCAACACACGTGTTAATATGGTCTTGATTCGCTTGACGCTGCTG | 8.34 |
| CACAATTTTTACAGTAATATAGCACGCGTAACTCCTGTCTTGATTCGCTTGACGCTGCTG | 8.37 |
| TCCGGCTACCAGATCCACCCACTTCAGGCCTTGTAGGTCTTGATTCGCTTGACGCTGCTG | 8.27 |
| TCCGGCTACCAGCTCCACCCACTTCAGGCCTTGCAGGTCTTGATTCGCTTGACGCTGCTG | 8.11 |
| TAAAGGGAAGACGCTTGTGGTAGTTCCGGGTATTAAGTCTTGATTCGCTTGACGCTGCTG | 8.41 |
| CACAATTTTTACAGTAATGTAGCACGCGTAACTCCAGTCTTGATTCGCTTGACGCTGCTG | 8.12 |

| Sequence | binding signal (log fluorescence intensity) |
| --- | --- |
| CTGGGACTTGACCCAACTCTGCCACGTTGGTCGTTTGTCTTGATTCGCTTGACGCTGCTG | 8.34 |
| CAGCATAGGAGTTCTTCCCTGAAGCAATTGATAACCGTCTTGATTCGCTTGACGCTGCTG | 8.17 |
| TCCGCCTACCAGCTCCACCCACTTCAGGCCTTGTAGGTCTTGATTCGCTTGACGCTGCTG | 8.47 |
| GATTAATTACTGCCCTTATTCGCACGTGCCATAACAGTCTTGATTCGCTTGACGCTGCTG | 8.17 |
| CTGGGACTTGGCCCAACTCTGCCACGTGGGTCGTTTGTCTTGATTCGCTTGACGCTGCTG | 8.06 |
| GTGTATAGGATCCCATCCAACTCACGTGTTAAAATGGTCTTGATTCGCTTGACGCTGCTG | 8.27 |
| TGTCGGGTAAGGGCATGTAGATCACGTGAATGAAAAGTCTTGATTCGCTTGACGCTGCTG | 8.41 |
| CGGAAGTGTCGTAAACGTCGGATATCCGGATCTTCTGTCTTGATTCGCTTGACGCTGCTG | 9.94 |
| GATTAATTTCTGCCCTTATTCGCGCGTGCCATAACAGTCTTGATTCGCTTGACGCTGCTG | 8.25 |
| TCCGGCTAACAGCTCCACCCACTTCAGGCCTTGTAGGTCTTGATTCGCTTGACGCTGCTG | 8.32 |
| TACTGACTTATATATGGGAATGCACATGAATAGACCGTCTTGATTCGCTTGACGCTGCTG | 8.32 |
| CGGAAGTGTCGTAAACCTCGGATATCCGGTTCTTCTGTCTTGATTCGCTTGACGCTGCTG | 11.7 |
| TAAAGGGAAGGCGGTTGTGGTAGTTCCGGGTATTAAGTCTTGATTCGCTTGACGCTGCTG | 8.4 |
| GCTGCTGCGGTGCATACCCCACCGGATGGGACCCCGGTCTTGATTCGCTTGACGCTGCTG | 8.45 |
| GTGTATAGGAACCCATCCAACACACGTGTTAAAATGGTCTTGATTCGCTTGACGCTGCTG | 8.33 |
| CACAATTTTTACAGTATTGTAGCACGCGTAACTCCTGTCTTGATTCGCTTGACGCTGCTG | 8.04 |
| GCTGCTGCGGTGCATACCACACCGGATGTGACCCCGGTCTTGATTCGCTTGACGCTGCTG | 10.7 |
| GATTAATTTCTGCCCTTATTCGCTCGTGCCATAACAGTCTTGATTCGCTTGACGCTGCTG | 8.23 |
| CTGGGACTTGACCCAACTCTGCCACGTGTGTCGTTTGTCTTGATTCGCTTGACGCTGCTG | 8.32 |
| GTGTATAGGATCCCATCAAACACACGTGTTAAAATGGTCTTGATTCGCTTGACGCTGCTG | 8.21 |
| CGGAAGTGTCGTAAACGTCGGATCTCCGGTTCTTCTGTCTTGATTCGCTTGACGCTGCTG | 8.47 |

| Sequence | binding signal (log fluorescence intensity) |
| --- | --- |
| CACAATTTTTAGAGTAATGTAGCACGCGTAACTCCTGTCTTGATTCGCTTGACGCTGCTG | 8.15 |
| CAGCATAGGACTTCTTCCCTGAAGCAATTGATAACCGTCTTGATTCGCTTGACGCTGCTG | 8.39 |
| GGAAAAAGGCCAAGGGTAACACCGGAAGTGGGCTTAGTCTTGATTCGCTTGACGCTGCTG | 12 |
| CAGCATAGGACTTCTTCCCTGAAGCTATTGATAACCGTCTTGATTCGCTTGACGCTGCTG | 8.13 |
| GCTGCTGCGGTGTATACCCCACCGGATGTGACCCCGGTCTTGATTCGCTTGACGCTGCTG | 10.1 |
| GTGTATAGGATCCCATCCAACCCACGTGTTAAAATGGTCTTGATTCGCTTGACGCTGCTG | 8.36 |
| GTGTATAGGATCCCATCCATCACACGTGTTAAAATGGTCTTGATTCGCTTGACGCTGCTG | 8 |
| CAGCATAGGACTTCTTCCCTGAAGCACTTGATAACCGTCTTGATTCGCTTGACGCTGCTG | 8.31 |
| GGAAAAAGGCCCAGGGTATCACCGGAAGTGGGCTTAGTCTTGATTCGCTTGACGCTGCTG | 11.4 |
| TGTTGGGTAAGGGAATGTAGATCACGTGAATGAAAAGTCTTGATTCGCTTGACGCTGCTG | 8.34 |
| TCCGGCTAGCAGCTCCACCCACTTCAGGCCTTGTAGGTCTTGATTCGCTTGACGCTGCTG | 8.23 |
| TCCGGCTACCAGCTCCACCCACTTCAGGCCGTGTAGGTCTTGATTCGCTTGACGCTGCTG | 8.27 |
| GCTGCTGCCGTGCATACCCCACCGGATGTGACCCCGGTCTTGATTCGCTTGACGCTGCTG | 10.4 |
| CGGAAGTGTAGTAAACGTCGGATATCCGGTTCTTCTGTCTTGATTCGCTTGACGCTGCTG | 11.6 |
| CTGGGACTTGACCAAACTCTGCCACGTGGGTCGTTTGTCTTGATTCGCTTGACGCTGCTG | 8.3 |
| GGAAAAAGGCCCAGGGTAACACCGTAAGTGGGCTTAGTCTTGATTCGCTTGACGCTGCTG | 8.34 |
| GTGTATAGGATCCCATCCAACACACGTGTTTAAATGGTCTTGATTCGCTTGACGCTGCTG | 8.26 |
| TACTGACTTATATATGCGAATGCACCTGAATAGACCGTCTTGATTCGCTTGACGCTGCTG | 8.24 |
| TCCGGCTACCAGCTCCACCCACTTCATGCCTTGTAGGTCTTGATTCGCTTGACGCTGCTG | 8.18 |
